# Assay results taken from PMC4336329 (PLoS ONE, 2015).
# The whole screen tested about 310,000 compounds, of which about 2,200 (0.71%) showed an effect of 50% or more. Effects have a minus sign here. This is one part of the list.
# Target: human ether-à-go-go-related gene (hERG) potassium channel (human, UniProt Q12809)
# Experiment: primary screen, population patch clamp on CHO cells stably expressing hERG
# human ether-à-go-go-related gene (hERG) potassium channel, sequence (Q12809 whole entry, looked up): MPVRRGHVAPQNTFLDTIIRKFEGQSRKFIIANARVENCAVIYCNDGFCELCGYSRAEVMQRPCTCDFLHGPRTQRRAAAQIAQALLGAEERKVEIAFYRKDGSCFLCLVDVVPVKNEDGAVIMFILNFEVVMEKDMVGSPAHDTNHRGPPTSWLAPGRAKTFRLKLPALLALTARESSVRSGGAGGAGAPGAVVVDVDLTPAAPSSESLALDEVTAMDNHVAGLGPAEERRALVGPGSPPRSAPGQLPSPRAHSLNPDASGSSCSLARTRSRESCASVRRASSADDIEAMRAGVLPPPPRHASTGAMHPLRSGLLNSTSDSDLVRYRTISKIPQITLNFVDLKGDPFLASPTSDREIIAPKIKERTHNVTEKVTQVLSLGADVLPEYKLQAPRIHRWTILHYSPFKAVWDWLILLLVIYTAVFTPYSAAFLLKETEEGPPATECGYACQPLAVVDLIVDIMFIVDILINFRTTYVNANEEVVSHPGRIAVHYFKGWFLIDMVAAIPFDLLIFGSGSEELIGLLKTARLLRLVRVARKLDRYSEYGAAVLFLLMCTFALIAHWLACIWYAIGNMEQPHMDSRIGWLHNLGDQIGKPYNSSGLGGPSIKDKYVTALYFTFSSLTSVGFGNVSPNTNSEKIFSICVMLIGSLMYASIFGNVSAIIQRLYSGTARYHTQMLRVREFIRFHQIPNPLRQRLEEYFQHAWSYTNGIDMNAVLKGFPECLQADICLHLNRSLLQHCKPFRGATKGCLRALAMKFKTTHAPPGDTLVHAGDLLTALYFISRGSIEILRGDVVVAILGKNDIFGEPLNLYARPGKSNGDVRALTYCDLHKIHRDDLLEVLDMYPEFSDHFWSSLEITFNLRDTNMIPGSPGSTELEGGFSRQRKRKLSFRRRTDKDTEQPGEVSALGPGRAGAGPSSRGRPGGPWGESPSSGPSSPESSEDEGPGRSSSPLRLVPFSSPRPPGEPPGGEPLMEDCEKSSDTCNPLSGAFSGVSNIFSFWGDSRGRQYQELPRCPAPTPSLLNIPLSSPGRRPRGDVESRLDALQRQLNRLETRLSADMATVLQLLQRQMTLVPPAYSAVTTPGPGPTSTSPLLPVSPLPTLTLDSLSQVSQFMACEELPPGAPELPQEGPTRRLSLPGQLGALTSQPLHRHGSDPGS
row,Compound,"hERG current change (%, negative = inhibition) at 1uM [%]"
1,COc1ccc(CCNC(=O)CSCc2ccc([N+](=O)[O-])cc2)cc1OC,-4.02
2,O=C(COC(=O)C1COc2ccccc2O1)Nc1ccc(Cl)cc1 (stereo not drawn),11.7
3,Cc1ccc(-n2nc3c(=O)n(C(C)C(=O)NCCc4cccs4)nc(C)c3c2C)cc1 (stereo not drawn),-1.96
4,CC(=O)c1c(C)n(CCc2ccc(Cl)cc2)c2ccc(O)cc12,14.6
5,O=[N+]([O-])c1cc(C(F)(F)F)cc([N+](=O)[O-])c1Sc1n[nH]c(C(F)(F)F)n1,11.9
6,COc1ccc(N2CCN(C(=O)CCCNC(=O)Cn3cnc4sc(C)c(C)c4c3=O)CC2)cc1,11.4
7,CC(=O)Nc1ccc(NS(=O)(=O)c2ccc(C)cc2)cc1[N+](=O)[O-],22.1
8,CCCCC(=O)Nc1ccc(C(=O)NN2C(=O)c3ccccc3C2=O)cc1,5.58
9,O=C(Nc1nccs1)c1ccc([N+](=O)[O-])cc1,4.36
10,O=S(=O)(NC1CC2CCC1C2)c1ccc(Br)s1 (stereo not drawn),7.09
11,CCCCN(C(=O)C(CCSC)N1C(=O)c2ccccc2C1=O)c1c(N)n(CCC)c(=O)[nH]c1=O (stereo not drawn),7.61
12,COc1ccc([C@@H]2[C@@H]3C(=O)N(C(C)(C)C)C(=O)[C@@H]3[C@]3(C)C(=O)N(c4cccc(Br)c4)C(=O)N23)cc1,14.9
13,COc1ccc(NS(=O)(=O)c2cccs2)cc1S(=O)(=O)N1CCCCC1,-4.47
14,CCN(CC)c1nc(OCCNC(=O)Nc2ccccc2)nc(N(CC)CC)n1,8.59
15,O=C(CNS(=O)(=O)c1cccc(Br)c1)NCC1CCCCC1,10.9
16,CCCC(=O)N1CCN(c2nnc(-c3ccc(C)cc3)c3ccccc23)CC1,-7.41
17,CCCC(=O)Nc1cc(C)c(NC(=O)C23CC4CC(CC(C4)C2)C3)cn1,-1.21
18,CC[C@@H](C)[C@H](NC(=O)OCc1ccccc1)c1nnc([C@@H](NC(=O)OCc2ccccc2)[C@@H](C)CC)o1,0.473
19,CCN(CC)CCn1c2ccccc2c2nc3ccc([N+](=O)[O-])cc3cc21,11.3
20,CC(NC(=O)C(C(=O)c1cccc([N+](=O)[O-])c1)n1cc(Cl)ccc1=O)c1ccccc1 (stereo not drawn),5.65
21,O=C(COC(=O)Cc1c(Cl)cccc1Cl)NCC1CCCO1 (stereo not drawn),12

row,Compound,"hERG current change (%, negative = inhibition) at 1uM [%]"
1,CCc1nnc(SCC(=O)Nc2ccc3c(c2)OCO3)o1,16
2,CC1CCC(CN2C(Nc3ccccc3)=NC[C@@H]2C)CC1 (stereo partly drawn),4.01
3,CCN(C(=O)c1cc(Cl)ccc1OC)c1ccccc1C,8.13
4,O=C(O)C1=C[C@H](c2ccc3c(c2)OCO3)C[C@H](OCCCCO)O1,13.5
5,O=C(c1cc(-c2ccc(F)cc2)on1)N1CCN(c2ccc(F)cc2)CC1,4.64
6,C#CCOCCOCCOCCNc1nc(N2CCN(C(=O)[C@H]([C@@H](C)CC)n3cc([C@@H](N)Cc4ccc(O)cc4)nn3)CC2)nc(N2CCN(C(=O)[C@H](Cc3ccc(O)cc3)n3cc([C@@H](N)CC(C)C)nn3)CC2)n1.Cl,3.59
7,Br.COc1cc2c(cc1OC)-c1c(OC)c(OC)cc3c1[C@H](C2)[NH+](C)CC3,2.14
8,O=C(CCC1CCCC1)N1CCN(C(=O)c2cccnc2)CC1,-0.154
9,CN(/N=C\c1ccc(O)c(O)c1)c1nc(-c2ccccc2)cc(-c2ccccc2)n1,7.52
10,Cc1ccccc1C(=O)Nc1c(C(=O)N2CCN(C)CC2)cnn1-c1ccccc1,1.11
11,O=C(CCc1nc2ccccc2c(=O)[nH]1)OCc1ccccc1F,4.73
12,Cc1c(Cl)c([N+](=O)[O-])nn1CC(=O)N1CCc2ccccc2C1,11.9
13,COc1ccccc1C/C(N)=N/OC(=O)c1ccco1,-1.28
14,CC(=O)Nc1nnc(SCc2ccc(C(=O)Nc3ccccc3F)cc2)s1,11.1
15,C=CCn1c(=O)c(C(=O)Nc2ccccc2S(N)(=O)=O)c(O)c2ccccc21,9.4
16,CN(C)S(=O)(=O)c1cccc(NC(=O)Cc2ccc(-c3ccccc3)cc2)c1,12.1
17,O=C(Cc1ccccc1)NCCCc1ccccc1,11.1
18,COc1ccc(S(=O)(=O)N(C)c2ccc(C(=O)N3CCC(C(N)=O)CC3)cc2)cc1,-1.86
19,CCOC(=O)C1=C(COC(=O)/C=C/c2ccc(C)o2)NC(=O)NC1C (stereo not drawn),6.48
20,CCn1c(O)c(/C=N/NC(=O)c2ccccc2)c(=O)n(CC)c1=S,10
21,CCC1CCCCN1C(=O)COC(=O)CN(C)S(=O)(=O)c1ccc(NC(C)=O)cc1 (stereo not drawn),15.5

row,Compound,"hERG current change (%, negative = inhibition) at 1uM [%]"
1,CCCCn1c(N)c(N(CC(C)C)C(=O)c2c(-c3ccccc3)noc2C)c(=O)[nH]c1=O,-0.198
2,Cc1cc(C)cc(NC(=O)Cc2ccc(NC3=NC4CS(=O)(=O)CC4S3)cc2)c1 (stereo not drawn),8.81
3,CCn1c(COc2ccccc2)nnc1SCC(=O)NC1CC1,7.06
4,Cc1cccc(NC(=O)CCS(=O)(=O)c2cccc3nsnc23)c1C,14.8
5,O=C(NCc1ccco1)c1ccc(CS(=O)(=O)c2cccc(C(F)(F)F)c2)o1,-16.2
6,C=CCNC(=O)c1ccccc1NC(=O)Nc1ccccc1,16.7
7,CS(=O)(=O)O.Cc1cc2c(cc1[N+](=O)[O-])NC(CNC(C)C)CC2 (stereo not drawn),4.44
8,COC(=O)[C@H](CCSC)NC(=O)Nc1ccc(OC)cc1,3.71
9,Cc1ccccc1NC(=O)CN1C(=O)c2ccccc2C1=O,9.9
10,COc1ccc(CN2CCn3ncc(C(=O)Nc4ccccc4)c3C2=O)cc1,4.98
11,Cc1cc(C(=O)COc2ccccc2Cl)c(C)n1C1CC1,-1.36
12,CC(=O)Nc1cccc(Oc2ncnc3scc(-c4ccc(C(C)C)cc4)c23)c1,12.6
13,CCN1CCN(c2cc(C)c3cc(NC(=S)N4CCC5(CC4)OCCO5)ccc3n2)CC1,6.44
14,N#Cc1ccc(Oc2ccc(C(N)=O)cc2)cc1C#N,7.47
15,O=C(c1cc2ccccc2oc1=O)N(Cc1ccco1)Cc1cccs1,-15.3
16,COc1ccc(CNC(=O)CSc2n[nH]c(C)c2[N+](=O)[O-])cc1,24.6
17,COC(=O)c1ccc(C(=O)OC)c(NC(=O)COC(=O)c2ccccc2OC)c1,1.45
18,CC(C)C[C@H]1CN=C(Nc2ccccc2)N1CC1CCC(C)CC1 (stereo partly drawn),-23.7
19,O=C(c1cc(-c2ccc(Br)cc2)on1)N1CCCC1,15.6
20,Cc1cc(/C=N/NC(=O)c2nn(C)cc2Cl)c(C)n1-c1cccc(Br)c1,5.67
21,Cc1ccc(S(=O)(=O)CCC(=O)OCC(=O)NCCc2ccc(F)cc2)cc1,3.69

row,Compound,"hERG current change (%, negative = inhibition) at 1uM [%]"
1,Cc1ccc(OCCCC(=O)Nc2ccc(S(=O)(=O)Nc3cc(C)nc(C)n3)cc2)cc1,8.41
2,COc1cccc(C(=O)n2cnnc2N)c1OC,9.94
3,Cc1c(C(=O)NC2CCCc3ccccc32)oc2ccc(S(=O)(=O)N3CCOCC3)cc12 (stereo not drawn),7.93
4,CN(CC(=O)Nc1ccc(F)cc1)C(=O)c1cn(-c2ccccc2)nc1-c1cccs1,5.06
5,CC1CCc2c(sc3ncn4c(SCC(=O)NCc5ccco5)nnc4c23)C1 (stereo not drawn),6.8
6,O=C(NCc1ccc2c(c1)OCO2)C1Cc2ccccc2CN1C(=O)c1ccco1 (stereo not drawn),-11.6
7,CCOC(=O)c1c(NC(=O)CS(=O)(=O)c2cn(CC)c3ccccc23)sc2c1CCCC2,8.85
8,Clc1ccc(OCc2noc(-c3ccsc3)n2)c(Cl)c1,24.7
9,C#CCN[C@H](C)Cc1ccccc1.Cl,14.3
10,CN1CC(=O)Nc2ccc(F)cc2C1=O,11.1
11,OCCNc1nc(Nc2ccccc2O)nc(N2CCCC2)n1,6.49
12,COCCn1c(-c2ccccc2)nc(=S)c2c1CC(C)(C)OC2,-8.98
13,C=CCNc1nnc(SCC(=O)N2CCC(C(N)=O)CC2)s1,-12
14,COc1cc(NS(=O)(=O)c2ccc(Cl)cc2)c(C(=O)O)cc1OC,0.636
15,O=C1CCN(Cc2ccc(Br)cc2)CCN1CCO,12
16,Cc1cc(C)n2nc(SC(C)C(=O)N(C)c3ccccc3)nc2n1 (stereo not drawn),15.5
17,Cc1[nH]c2ccccc2c1C(=O)COC(=O)c1ccc[n+]([O-])c1,8.84
18,Cc1cc(C)c(NC(=O)c2ccc(CNS(=O)(=O)c3cc(C(F)(F)F)ccc3Cl)cc2)c(C)c1,10.5
19,N/C(CS(=O)(=O)c1ccccn1)=N\OC(=O)c1ccc(Cl)cc1,6
20,Cc1cc2c(c(SCC(=O)NCc3ccccc3Cl)n1)C(=O)OC2,6.32
21,C[C@@H](NC(=O)c1nc[nH]c1C(=O)N(C)Cc1ccccc1)c1ccccc1,5.91
